# Source: PubChem BioAssay AID686979 (National Center for Advancing Translational Sciences (NCATS), 2013)
# Screen size: about 420,000 compounds; about 50,000 (12%) were called active. Inconclusive means that the source gave no clear call. Such entries were picked first, then a sample of the others. Calls follow the shape of the dose curve; as a rule, active = well fitted inhibition curve with a large enough effect; inconclusive = small, poorly fitted or top-dose-only effect; inactive = flat fitted curve, though single readings scatter. Potencies of inconclusive entries are left out as doubtful fits.
# Test: qHTS for Inhibitors of human tyrosyl-DNA phosphodiesterase 1 (TDP1): qHTS in cells in presence of CPT; also: nearly all actives have a fitted effect of over 55% in size
# Conditions: chicken DT40 Tdp1-/-;hTDP1 cells + 20 nM CPT, ATP luminescence, 48 h; activity change, negative = growth inhibition: at 46.2 µM (top of the series) unless noted
# Procedure, shortened: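 Chicken DT40 Tdp1-/- cells stably complemented with human TDP1 were seeded at 400 cells/well in medium containing 20 nM camptothecin, exposed to pin-transferred compounds, and grown at 37 °C for at least 48 hr. Viability was read as ATP luminescence.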
# % is scaled to controls: 0 for no effect and ±100 for the full control effect; potency is read from the fitted curve at half-maximal effect; tags tell the direction and shape of the fitted curve.
SMILES,Potency,"activity change, negative = growth inhibition"
O=C(c1ccco1)N1CCC2(CCN(Cc3cc(C(F)(F)F)cc(C(F)(F)F)c3)CC2)CC1,"inconclusive [inhibitor, single point]",
COc1ccccc1/C=C/c1onc(C)c1S(=O)(=O)N1CCC(C(=O)N2CCC(C)CC2)CC1,active: 20.6 µM,
Cc1ccc(NC(=O)c2cc(N3C(=O)C=CC3=O)ccc2N2CCOCC2)cc1Cl,active: 4.11 µM,
CN1C[C@@H]2[C@@H]3C(=O)N(Cc4ccccc4)C(=O)[C@@H]3[C@](Cc3ccccc3)(C1=O)N2C(=O)c1ccc(Cl)cc1,"inconclusive [inhibitor, single point]",
CC(C)C(=O)NC(=S)/C=C1/N(C)c2ccccc2C1(C)C,active: 18.4 µM,
CSCCC(C(=O)NC1=NCCS1)N1C(=O)c2ccccc2C1=O (stereo unspecified),,inactive: 0.803%
Cc1c(O)ccc2c3c(c(=O)oc12)CCCC3,"inconclusive [inhibitor, single point]",
CCOC(=O)c1cc(-c2ccc(N3CCOCC3)cc2)nn1-c1ccccc1,active: 20.6 µM,
COc1ccccc1NC(=O)Nc1nc(C(N)C2CCCCC2)cs1 (stereo unspecified),active: 23.1 µM,
O=[N+]([O-])c1cc(S(=O)(=O)Nc2cccc(Cl)c2)ccc1N/N=C/c1ccc(N2CCOCC2)cc1,"inconclusive [inhibitor, partial curve]",
CC(C)(C)NC(=O)c1oc2ccccc2c1COc1ccccc1,"inconclusive [inhibitor, single point]",
COc1ccc(C2(c3ccc(OC)cc3)NC(=O)N(CC(=O)Nc3ccc(OC(F)F)cc3)C2=O)cc1,"inconclusive [inhibitor, single point]",
CC(=O)c1cc(-c2ccccc2)n(CC(=O)NC2CCCC2)c1C,,inactive: -16.2%
COC(=O)c1cccc(C23CC4(C2)[C@H](CN(Cc2cccnc2)[C@@H]4c2ccccc2)C3c2ccccc2)c1 (stereo partly specified),"inconclusive [inhibitor, single point]",
Cc1c(Cl)cccc1NC(=O)c1cc(S(=O)(=O)N2CCCCC2)cn1C,"inconclusive [inhibitor, partial curve]",
COc1ccc(-n2c(=O)c(CCC(=O)N3CCC(C)CC3)nc3ccccc32)cc1,active: 18.4 µM,
CCC1(C)CC(=O)N(c2ccc(F)c(Cl)c2)C(=O)C1,,inactive: -0.241%
Cc1ccc(C2=NN(C(=O)CN3C(=O)c4ccccc4S3(=O)=O)C(c3ccco3)C2)cc1 (stereo unspecified),active: 13 µM,
Cc1cc(C)nc(/N=C2\NC(=O)CC(C(=O)O)N2c2ccc(Cl)cc2Cl)n1 (stereo unspecified),,inactive: -8.38%
COc1cc2ncnc(N[C@H](C)c3ccccc3)c2cc1OC,active: 18.4 µM,
Cc1nc2ccccc2cc1OCc1ccccc1,active: 11.6 µM,
O=C(c1csnn1)N1CCC[C@@]2(CCN(c3ccccc3)C2)C1,,inactive: -17.7%
O=C(CSc1ccccc1C(=O)O)Nc1ccc2c(c1)OCO2,,inactive: -5.42%
Cc1ccc(NC(=S)NC2CCCCC2)cc1S(=O)(=O)N(C)C,"inconclusive [inhibitor, partial curve]",

SMILES,Potency,"activity change, negative = growth inhibition"
COc1cc(/C=C(\C#N)c2nc3ccccc3s2)cc([N+](=O)[O-])c1O,"inconclusive [inhibitor, single point]",
Cn1c(=O)c2c(ncn2CC(=O)Nc2nc(-c3ccc(F)c(F)c3)cs2)n(C)c1=O,"inconclusive [inhibitor, partial curve]",
CCN(C(=O)COC(=O)c1cc(NS(=O)(=O)c2ccc(Cl)c([N+](=O)[O-])c2)ccc1O)C1CCCCC1,"inconclusive [inhibitor, single point]",
CC(=O)N(CC(=O)Nc1sc(C)c(C)c1C(N)=O)Cc1ccccc1,,inconclusive: -30.7% [inhibitor]
CC(=O)N1CCN(c2ccc(NC(=O)c3ccc(C(C)(C)C)cc3)cc2)CC1,"inconclusive [inhibitor, single point]",
COC(=O)c1sccc1S(=O)(=O)N(CC(=O)Nc1ccccc1C)c1ccc(Cl)cc1,"inconclusive [inhibitor, single point]",
Cc1ccc(COC(=O)c2ccc3ccccc3n2)cc1,,inactive: 8.37%
N#CCCn1c(=O)c(-c2ccc(Cl)cc2)nc2cnc(Nc3ccccc3)nc21,"inconclusive [inhibitor, single point]",
O=C(CSc1ncn[nH]1)c1ccc2c(c1)OCCO2,,inconclusive: -30.5% [inhibitor]
Cc1ccccc1NC(=O)CSc1nc2ccc(NC(=O)CCc3ccccc3)cc2s1,"inconclusive [inhibitor, single point]",
O=C(O)CSc1nnnn1C1CCCCC1,"inconclusive [inhibitor, single point]",
CCn1cc(/C=C(\NC(=O)c2ccccc2OC)C(=O)N2CCOCC2)c2ccccc21,"inconclusive [inhibitor, single point]",
CN(C)c1ccc(CC(=O)N2CCCCC2c2cc(C(=O)Nc3cccc4c3CCCC4)no2)cc1 (stereo unspecified),active: 25.9 µM,
Cc1cc(C)nc(NN=C2CCCC2)n1,,inactive: 8.03%
Cc1ccc(C(C)C)cc1OCC(=O)Nc1ccc(N2CCCCC2)cc1,"inconclusive [inhibitor, single point]",
Cc1ccc(CN2CCC[C@]3(N[C@H](c4ccc(C(F)(F)F)cc4)[C@@H]4C(=O)N(C)C(=O)[C@@H]43)C2=O)cc1,"inconclusive [inhibitor, single point]",
CC(C)C(OC(=O)c1cccs1)C(=O)NCc1ccco1 (stereo unspecified),"inconclusive [inhibitor, single point]",
O=[N+]([O-])c1ccc(N/N=C/C=C/c2ccco2)cc1,"inconclusive [inhibitor, single point]",
O=C(N/N=C\c1cc2c(cc1Cl)OCO2)c1cccs1,"inconclusive [inhibitor, partial curve, poor fit]",
COc1cc(C(=O)COC(=O)c2cccs2)cc(OC)c1OC,,inactive: 3.06%
CC(=O)Nc1cc2c(cc1Cl)-c1ccccc1C2O (stereo unspecified),,inactive: -20.5%
Cc1cc(OCC(=O)Nc2cccc(-c3nc4ccccc4o3)c2C)cc(C)c1Cl,"inconclusive [inhibitor, single point]",
COc1ccc(C(=O)NCc2nc(-c3cccc(C)c3)no2)cc1OC,"inconclusive [inhibitor, single point]",
CCNc1c2c(nc3ccccc13)CC(C)(C)CC2=O,"inconclusive [inhibitor, single point]",

SMILES,Potency,"activity change, negative = growth inhibition"
O=S(=O)(Nc1ccc(Nc2ccccc2)cc1)c1ccc(F)cc1,"inconclusive [inhibitor, single point]",
Cc1ccccc1NCc1ccc(O)c2ncccc12,active: 2.59 µM,
CCOC(=O)C1(CCOc2ccccc2)CCN(Cc2cccc(F)c2)CC1,active: 16.4 µM,
CC(C)(C)NC(=O)CSc1nc(-c2ccccc2)cc(=O)[nH]1,,inactive: 2.28%
Clc1ccc(Sc2cc(N3CCOCC3)nc(-c3ccccc3)n2)cc1,"inconclusive [inhibitor, single point]",
C=CCOC(=O)C1=C(C)NC(SCC(=O)Nc2ccc(C)c(Cl)c2)=C(C#N)C1c1ccco1 (stereo unspecified),"inconclusive [inhibitor, single point]",
O=C(Nc1ccccc1)C(=O)Nc1ccccn1,,inactive: -5.47%
Cc1cc(NS(=O)(=O)c2cn(C)c(C)n2)ccc1Br,,inconclusive: -33.9% [inhibitor]
Cn1c(SCC(=O)c2ccc(F)cc2)nnc1-c1ccccc1N,,inactive: -17.2%
Cc1nc2ccc(NS(=O)(=O)c3ccc(F)cc3F)cc2s1,"inconclusive [inhibitor, single point]",
COc1cccc(C(=O)COC(=O)c2cc(-c3cccs3)nc3ccccc23)c1,"inconclusive [inhibitor, partial curve]",
COc1ccc(S(=O)(=O)NNC(=O)Nc2ccc(C)cc2)c(OC)c1,,inactive: -12.3%
O=C(CCCSc1nnc(SCCCC(=O)c2ccc(F)cc2)s1)c1ccc(F)cc1,active: 18.4 µM,
O=C(COc1ccc(F)cc1Cl)Nc1cc(S(=O)(=O)N2CCOCC2)ccc1N1CCCCC1,"inconclusive [inhibitor, single point]",
O=C(CSc1nc(-c2ccccc2)c(-c2ccccc2)o1)NC1CCS(=O)(=O)C1 (stereo unspecified),,inactive: -11.1%
COc1cc(OC)c(C=CC(=O)c2ccccc2O)c(OC)c1,"inconclusive [inhibitor, partial curve, poor fit]",
COc1cccc(CNC(=O)CCc2c(C)nc3c4c(C)cc(C)nc4nn3c2C)c1,"inconclusive [inhibitor, single point]",
COc1ccc(OC)c(CN2CCN(Cc3cccc4ccccc34)CC2)c1,"inconclusive [inhibitor, single point]",
CC1C(=O)Nc2ccccc2N1C(=O)c1cccc(C(F)(F)F)c1 (stereo unspecified),"inconclusive [inhibitor, single point]",
CC(C)N(C)c1ncnc2c1ncn2[C@H]1CN(Cc2cccs2)C[C@@H](CO)O1,"inconclusive [inhibitor, single point]",
C/C(=N\NC(=O)c1n[nH]c2c1CCC2)c1cccs1,,inactive: 0.806%
CC1CCCCC1NC(=O)/C(C#N)=C/c1ccc(OCC(N)=O)cc1 (stereo unspecified),"inconclusive [inhibitor, partial curve]",
NC(=O)c1ccc(N2CCN(S(=O)(=O)c3cccs3)CC2)c([N+](=O)[O-])c1,active: 8.2 µM,
